Data: PubChem BioAssay AID652104 (National Center for Advancing Translational Sciences (NCATS), 2013)
About 7,200 (1.8%) of roughly 410,000 compounds were called active. Inconclusive results, whose numbers are uncertain, are shown with a selection of clear calls. Calls come from the whole dose curve; as a rule, active = well fitted activation curve with a large enough effect; inconclusive = small, poorly fitted or top-dose-only effect, or another doubt; inactive = no such curve, though single readings can be large or run the other way. Potencies of inconclusive entries are left out as doubtful fits.

Experiment: qHTS of TDP-43 Inhibitors; note: nearly all actives have a fitted effect of over 50% in size; for growth rescue (activation): % of control where 0% means no effect
Conditions: TDP-43 expressing yeast growth rescue, BacTiter-Glo, 24 h; growth rescue (activation): at 46.1 µM (top of the series) unless noted
Outline: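 Cell-based yeast growth screen: TDP-43 expression induced in galactose, inoculum OD600=0.02 after raffinose pregrowth to mid-log. Read-out BacTiter-Glo luminescence at 24 hr, 30 deg C; inhibition of toxicity seen as signal increase.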
Potency is the fitted concentration of half-maximal effect; tags give direction and shape of the fitted curve.

| SMILES | growth rescue (activation) | Potency |
| --- | --- | --- |
| CCc1nn(Cc2ccc(Cl)cc2)c(=O)c2cc3cc(C)ccc3n12 | inactive: 12.6% | – |
| O=S1(=O)CCN2C(=N1)Sc1c2ccc2c1CCCC2 | – | inconclusive [activator, single point] |
| CCOc1ccc(Cc2noc3c2C(=O)CCC3)cc1OCC | – | inconclusive [activator, partial curve] |
| CCCc1cc(C(=O)Nc2ccc(C)cc2)no1 | – | inconclusive [activator, full curve, poor fit] |
| Cc1ccc(NC(=O)c2sc3nc4c(cc3c2N)CN(Cc2ccccc2)CC4)cc1 | – | inconclusive [activator, single point] |
| O=C(Nc1ccccn1)C1CCN(S(=O)(=O)c2ccccc2)CC1 | – | inconclusive [activator, single point] |
| C=CCNc1nc(-c2ccccc2)c(C(=O)OCC)cc1C#N | – | inconclusive [activator, single point] |
| Cc1cc(C(=O)COc2ccccc2C(N)=O)c(C)n1C1CC1 | – | inconclusive [activator, partial curve] |
| COc1cccc(C(=O)Nc2cccc(-c3cn4c(C)csc4n3)c2)c1OC | – | inconclusive [activator, single point] |
| CCc1nc2c(OCc3ccccc3)cccn2c1N(C)C(=O)COc1ccccc1 | inactive: 11.6% | – |
| CC(C)c1ccccc1NC(=O)COC(=O)/C=C/c1cccc([N+](=O)[O-])c1 | – | inconclusive [activator, single point] |
| CCN(Cc1ccccc1)C(=O)Cn1c(=O)n(-c2ccc(C)c(C)c2)c(=O)c2c(C)c(C)sc21 | inactive: 2.54% | – |
| COc1ccc(CN2C(=O)c3ccccc3C2C(=O)NCCc2ccccc2)c(OC)c1 (centres undefined) | – | inconclusive [activator, partial curve, poor fit] |
| COc1cc(C=O)ccc1OCCOCCOc1c(C)cc(Cl)cc1Cl | – | active: 22.4 µM |
| Cc1nc2c(-c3ccccc3)c[nH]n2c(=O)c1Cc1ccccc1 | inactive: -25.4% | – |
| Cn1c(CCCOc2ccc(Cl)cc2Cl)n[nH]c1=S | – | inconclusive [activator, single point] |
| COc1ccccc1Oc1ncnc2sccc12 | – | inconclusive [activator, partial curve] |
| Cc1ccc(N2CCN(C(=O)c3cccc([N+](=O)[O-])c3)CC2)cc1Cl | – | active: 12.6 µM |
| CCCSc1ncc(Cl)c(C(=O)Nc2c(C(=O)Nc3ccc(C)cc3)oc3ccccc23)n1 | – | inconclusive [activator, full curve, poor fit] |
| CCCC1Nc2ccc(C(=O)O)cc2C2C=CCC12 (centres undefined) | – | inconclusive [activator, partial curve] |
| COc1ccc(C2=NOC(C(=O)N3CCCCCC3)C2)cc1OC (centres undefined) | – | inconclusive [activator, single point] |
| Cc1cc(SCC(=O)Nc2ccccc2)n2ncc(-c3ccccc3)c2n1 | – | inconclusive [activator, full curve] |
| O=C(c1cc(COc2c(F)cccc2F)on1)N1CCC(c2ccccc2Cl)C1 (centres undefined) | – | inconclusive [activator, full curve] |

| SMILES | growth rescue (activation) | Potency |
| --- | --- | --- |
| COC(=O)c1ccc2nc(C3CCCCC3)c(Cc3cccc(Cl)c3)n2c1 | – | inconclusive [activator, partial curve] |
| COC(=O)c1ccc(C(=O)OC)c(NC(=O)Oc2ccccc2)c1 | inactive: -12.8% | – |
| CCOc1cccc(/C=N/NS(=O)(=O)c2ccc(C)c([N+](=O)[O-])c2)c1O | inactive: -3.64% [at 9.22 µM] | – |
| Cc1cc(SCC(=O)NC(=O)NCc2ccco2)nc2ccccc12 | – | inconclusive [activator, full curve] |
| Cc1ccc(Cl)cc1N1CCN(Cc2nnc(-c3ccc4c(c3)OCO4)o2)CC1 | – | inconclusive [activator, partial curve] |
| CSc1nc(C)cc(C)c1S(=O)(=O)c1ccccc1C | – | active: 11.2 µM |
| Cc1ccc(NC(=S)NNC(=O)C2CC2c2ccc(C)cc2)cc1 (centres undefined) | inactive: 0% | – |
| Cc1ccc(C2CC2c2n[nH]c(=S)n2-c2cccc(C)c2)cc1 (centres undefined) | – | inconclusive [activator, single point] |
| S=c1[nH]nc(CSc2nc3ccccc3s2)o1 | – | inconclusive [activator, single point] |
| CC1CC(C)CN(c2ccc([N+](=O)[O-])nc2)C1 (centres undefined) | – | inconclusive [activator, partial curve] |
| COc1ccc(S(=O)(=O)N2CCC(C(N)=O)CC2)c2ccccc12 | inactive: 1.18% | – |
| COc1ccc(-c2oc3c4c2C(=O)OCCOC4CCC3)cc1 (centres undefined) | – | inconclusive [activator, partial curve] |
| CCCCNC(=O)c1nc(-c2cnccn2)oc1-c1ccc(Cl)cc1 | – | inconclusive [activator, partial curve] |
| O=C(Nc1ncccc1O)C1CCN(S(=O)(=O)c2ccc3ccccc3c2)CC1 | – | inconclusive [activator, partial curve] |
| CSc1cccc(NC(=O)CCCn2c(=O)c3cccn3c3cccnc32)c1 | – | inconclusive [activator, single point] |
| COc1ccc(C2SCCN2C(=S)Nc2cccc(Cl)c2)cc1 (centres undefined) | – | active: 17.8 µM |
| Cc1ccc(SCCNC(=S)Nc2cc(C)cc(C)c2)cc1 | – | inconclusive [activator, partial curve] |
| Cc1ccc(N2CCOCC2)c2c1C(=O)c1ccccc1C2=O | – | inconclusive [activator, single point] |
| CC(=O)c1ccccc1OCc1ccc(C(=O)c2ccccc2)cc1 | – | inconclusive [activator, single point] |
| O=C(COC(=O)CCS(=O)(=O)c1ccc(F)cc1)NC1CCCCC1 | inactive: -0.746% | – |
| O=S(=O)(c1cnc(Cl)c(Cl)c1)N1CCCc2ccccc21 | – | inconclusive [activator, single point] |
| CCc1nc(SCc2ccc(Br)cc2)n[nH]1 | – | inconclusive [activator, single point] |
| CN(c1nc2ccccc2nc1Cl)S(=O)(=O)c1ccccc1 | – | inconclusive [activator, single point] |

| SMILES | growth rescue (activation) | Potency |
| --- | --- | --- |
| COc1ccc(CC(=O)Nc2c(C(=O)N3CCN(c4ccccc4OC)CC3)oc3ccccc23)cc1OC | – | inconclusive [activator, single point] |
| Cc1cccc(-c2nnc(C3CCN(S(=O)(=O)c4cccc(Cl)c4)CC3)o2)c1 | – | active: 15.8 µM |
| Cc1cccc(OCc2nnc(SCn3nnc4ccccc4c3=O)o2)c1 | – | inconclusive [activator, single point] |
| Cn1nc(C(=O)Nc2ccc(F)c(Cl)c2)c2c1-c1ccccc1S(=O)(=O)C2 | inactive: 27.7% | – |
| O=C(NCC1CCOCC1)c1ccc(-c2ccc(F)c(F)c2)c2ccoc12 | – | active: 25.1 µM |
| Brc1ccc(COc2cccc3cccnc23)cc1 | – | inconclusive [activator, partial curve] |
| O=C(CSc1ncnc2sccc12)NC1CCS(=O)(=O)C1 (centres undefined) | – | inconclusive [activator, partial curve] |
| O=C(Nc1ccc2c(c1)CCCN2C(=O)c1cccs1)c1ccccc1Cl | inactive: 23.9% [at 9.22 µM] | – |
| CC1(C)CC(Cc2ccc(C(=O)c3ccccc3)cc2)N(C(=O)OC(C)(C)C)N1 (centres undefined) | – | inconclusive [activator, single point] |
| Cc1ccccc1Nc1nc(-c2cccnc2)nc2ccccc12 | – | inconclusive [activator, partial curve] |
| Cn1c(SCC(=O)NC2CCCCC2)nnc1-c1cc2ccccc2o1 | inactive: -2.43% | – |
| CN(CCc1ccccc1)C(=O)c1cccc(NC(=O)Cc2cccc(NC(=O)C3CCCN(S(=O)(=O)c4cccc([N+](=O)[O-])c4)C3)c2)c1 (centres undefined) | – | inconclusive [activator, single point] |
| COc1ccc(NC(=S)N2CCC(C(=O)c3ccc(F)cc3)CC2)cc1 | – | inconclusive [activator, single point] |
| CC1CSc2nc3sc4c(c3c(=O)n21)CCCC4 (centres undefined) | – | inconclusive [activator, partial curve] |
| C=C(C)CNC(=S)N/N=C\c1ccc2c(c1)OCO2 | – | inconclusive [activator, single point] |
| O=C(Nc1ncc2c(n1)-c1ccccc1CC2)c1cccc(Cl)c1 | – | active: 12.6 µM |
| Nc1ccccc1-c1nc2ccccc2c(=O)o1 | – | inconclusive [activator, single point] |
| Cc1c(C(=O)N2CCN(c3ccc(F)cc3)CC2)oc2c1C(=O)CCC2 | – | inconclusive [activator, partial curve] |
| C=CCNC(=O)c1cnc(-c2ccccc2)nc1-c1ccccc1 | – | inconclusive [activator, partial curve] |
| CC(CCl)n1c(=O)c2ccccc2n1S(C)(=O)=O (centres undefined) | – | inconclusive [activator, full curve, poor fit] |
| O=CNc1cc(-c2ccccc2Oc2ccccc2)cn2c(-c3ccc(F)cc3)cnc12 | – | active: 15.8 µM |
| CCCNC(=S)Nc1ccc2nc(-c3ccccn3)c(-c3ccccn3)nc2c1 | – | inconclusive [activator, single point] |
| Cc1csc(SCc2nnc(-c3ccccc3Br)o2)n1 | inactive: 3.01% | – |
